± gives the standard deviation of the averaged measurements. In all, about 33,000 sequences were measured (“E-score (dimensionless, -0.5 to 0.5)”: median about -0.049, highest 2% from about 0.37 on). The list shows a part of the results.

The test deals with T1, PmTbr T-box DNA-binding domain (GST fusion).
T1 sequence: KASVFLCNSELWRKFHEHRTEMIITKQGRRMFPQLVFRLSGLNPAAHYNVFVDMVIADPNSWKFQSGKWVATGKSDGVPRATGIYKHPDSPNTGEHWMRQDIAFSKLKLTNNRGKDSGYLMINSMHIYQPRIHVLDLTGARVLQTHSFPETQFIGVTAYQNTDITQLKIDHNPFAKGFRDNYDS
Nature of the test: PBM E-score of 8-mer (E-score (dimensionless, -0.5 to 0.5)); Tbr is Tbrain of the sea star Patiria miniata (Pm) or the sea urchin Strongylocentrotus purpuratus (Sp); higher = stronger binding preference; most listed sequences are background and not binding sites. As to conditions: the construct has about 5 more residues each side. Put shortly:
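Using the Universal PBM Analysis Suite, every ungapped 8-mer received an enrichment E-score averaged over duplicate arrays. Probe intensities came from double-stranded Universal Agilent oligonucleotide arrays incubated with 200 nM GST-fused Tbr T-box DNA-binding domain in PBS (pH 7.5). That protein was expressed in BL21 E. coli at 20 °C and purified by glutathione affinity chromatography.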
Take CGGAGAGC: the “PBM E-score of 8-mer” value is -0.185 ± 0.021. As for GGAAACAC, the “PBM E-score of 8-mer” value amounted to 0.0659 ± 0.019. Take ACGTGGCT: the “PBM E-score of 8-mer” value was -0.0363 ± 0.099. As to AGAGTTGC, the “PBM E-score of 8-mer” value is 0.0099 ± 0.0045.

As to GCAAGGCA, the “PBM E-score of 8-mer” value is -0.139 ± 0.043. On to TTGCTAAA, for which the “PBM E-score of 8-mer” value worked out at 0.241 ± 0.078. With GTCCGCCA, the “PBM E-score of 8-mer” value is 0.0338 ± 0.083. Take AATGCTTG: the “PBM E-score of 8-mer” value is -0.0694 ± 0.082. Take GCAGATGC: the “PBM E-score of 8-mer” value is -0.278 ± 0.0035. For TCGTTGCA the value was -0.0903 ± 0.089. With GGCCACAC, the “PBM E-score of 8-mer” value came out at 0.325 ± 0.019.

On to CACAGGCG, for which the “PBM E-score of 8-mer” value is 0.127 ± 0.027.

For the sequence AAGCCAAT, the “PBM E-score of 8-mer” value is -0.162 ± 0.051. As for TAACAAAA, the figure is 0.0887 ± 0.083; as for ACATTGTA, -0.048 ± 0.0027; as for GCCGCAGA, -0.259 ± 0.034.

Turning to CATTTCAG, the “PBM E-score of 8-mer” value worked out at 0.0456 ± 0.033. For GCTCGCCA, the “PBM E-score of 8-mer” value stood at 0.194 ± 0.0075. As for ACTGGTAA, the figure is -0.134 ± 0.069; as for GCTCCCAA, -0.0892 ± 0.012; as for AGCAGTTG, 0.0881 ± 0.0054. AAACGTGA: the “PBM E-score of 8-mer” value was found to be 0.229 ± 0.1.

For the sequence CAACCTGC, the “PBM E-score of 8-mer” value turned out to be 0.141 ± 0.026. For ACTACCGC the value was -0.0368 ± 0.039; for ACCGCGGC, -0.0821 ± 0.053.

Take CCCTTCGG: the “PBM E-score of 8-mer” value was -0.192 ± 0.022. For the sequence AAGGCTCG, the “PBM E-score of 8-mer” value is -0.054 ± 0.059. For TGCCTCAA the value was -0.18 ± 0.061; for AGACTCCC, -0.0857 ± 0.096; for CACTCCAC, 0.198 ± 0.027. For AGACTCCT the value was -0.263 ± 0.049.

Consider ATCTAGGC, for which the “PBM E-score of 8-mer” value is -0.309 ± 0.036. As for TCACGAAA, the figure is 0.112 ± 0.057. As for CGCCGGCC, the figure is -0.0282 ± 0.012; as for ACGCTTCG, 0.205 ± 0.0048. For ACTTTCTG the value was 0.0395 ± 0.063; for CGACGAAC, -0.0347 ± 0.042. As to CGCTTATA, the “PBM E-score of 8-mer” value was -0.0951 ± 0.075. CGTCTTTC: the “PBM E-score of 8-mer” value was -0.0275 ± 0.015. As for AGATGCCC, the “PBM E-score of 8-mer” value was -0.147 ± 0.025. As for CTGTGTCA, the figure is 0.216 ± 0.027; as for AAGCAAAG, -0.104 ± 0.017; as for GCAGTAGA, -0.188 ± 0.018.

Turning to CGCGATCA, the “PBM E-score of 8-mer” value amounted to 0.2 ± 0.048. Consider CCTATTAC, for which the “PBM E-score of 8-mer” value is -0.0634 ± 0.0018. For ACGTTTCT the value was -0.111 ± 0.046.

With GCGAATGA, the “PBM E-score of 8-mer” value was found to be 0.172 ± 0.021. As for AATCCAAC, the figure is -0.00751 ± 0.0064; as for CTCTCCAC, 0.0374 ± 0.028; as for ACGACCCT, -0.202 ± 0.013. As for CACCTCTG, the “PBM E-score of 8-mer” value is 0.4165 ± 0.00058. With AGGTGGTA, the “PBM E-score of 8-mer” value was 0.415 ± 0.0043.

Turning to ATTTGGGC, the “PBM E-score of 8-mer” value was -0.143 ± 0.011. As for GCCGAGGC, the figure is 0.0489 ± 0.028.

As for CGTAGTTC, the “PBM E-score of 8-mer” value was -0.0871 ± 0.059. For the sequence GGTTAAAC, the “PBM E-score of 8-mer” value is -0.174 ± 0.034. As for CGAGCACG, the figure is -0.23 ± 0.024; as for AGCGAGAT, 0.0736 ± 0.074. Consider CTTAAGGC, for which the “PBM E-score of 8-mer” value is -0.0813 ± 0.065. ATCGCTTC: the “PBM E-score of 8-mer” value turned out to be 0.0264 ± 0.017. As for GCAAACCA, the figure is -0.197 ± 0.063; as for ACCCCGGT, -0.0222 ± 0.02; as for ATCCTAGG, -0.256 ± 0.043. With CCTACAGA, the “PBM E-score of 8-mer” value was found to be 0.0375 ± 0.087. For AATGGGGT the value was 0.093 ± 0.0032.

Take CTGGAGCC: the “PBM E-score of 8-mer” value was -0.205 ± 0.047. For the sequence CAGATCTC, the “PBM E-score of 8-mer” value was -0.217 ± 0.028. For AGGCTCCC the value was -0.137 ± 0.013; for ATTTAGGC, 0.0122 ± 0.022; for AACCAAAC, -0.147 ± 0.023.

For AGCACACC, the “PBM E-score of 8-mer” value stood at 0.322 ± 0.036.

Take ACCAAAAA: the “PBM E-score of 8-mer” value is -0.124 ± 0.021. As for GAGTGAAA, the figure is 0.16 ± 0.1; as for GACGTCTC, -0.235 ± 0.013; as for ATCGTGCC, -0.0417 ± 0.072.

As for TCCAACCA, the “PBM E-score of 8-mer” value was -0.211 ± 0.067. Turning to ATCTAGGG, the “PBM E-score of 8-mer” value is -0.0863 ± 0.01. In the case of CTGAGCAA, the “PBM E-score of 8-mer” value is -0.173 ± 0.0042. As for CCTTGCAC, the figure is 0.218 ± 0.032; as for GAGCGTAC, -0.248 ± 0.05; as for ATTGCCAC, 0.279 ± 0.013.

As for AGCGATTA, the “PBM E-score of 8-mer” value is -0.0486 ± 0.00081. For GAACGTTC, the “PBM E-score of 8-mer” value is 0.0063 ± 0.12. For AGCCGAAG the value was -0.104 ± 0.011; for ATCCATGA, -0.298 ± 0.032; for CAGGACCA, -0.117 ± 0.036.

For the origin of these results see the supplement of paper PMC4166925.
